The supplement of paper PMC3334620
Over roughly 33,000 sequences, “E-score (-0.5 to 0.5)” has its median near -0.011; the highest 2% begin near 0.28. This is one part of the list.

Target: T1, Gcr1 (UniProt P07261)
T1 sequence: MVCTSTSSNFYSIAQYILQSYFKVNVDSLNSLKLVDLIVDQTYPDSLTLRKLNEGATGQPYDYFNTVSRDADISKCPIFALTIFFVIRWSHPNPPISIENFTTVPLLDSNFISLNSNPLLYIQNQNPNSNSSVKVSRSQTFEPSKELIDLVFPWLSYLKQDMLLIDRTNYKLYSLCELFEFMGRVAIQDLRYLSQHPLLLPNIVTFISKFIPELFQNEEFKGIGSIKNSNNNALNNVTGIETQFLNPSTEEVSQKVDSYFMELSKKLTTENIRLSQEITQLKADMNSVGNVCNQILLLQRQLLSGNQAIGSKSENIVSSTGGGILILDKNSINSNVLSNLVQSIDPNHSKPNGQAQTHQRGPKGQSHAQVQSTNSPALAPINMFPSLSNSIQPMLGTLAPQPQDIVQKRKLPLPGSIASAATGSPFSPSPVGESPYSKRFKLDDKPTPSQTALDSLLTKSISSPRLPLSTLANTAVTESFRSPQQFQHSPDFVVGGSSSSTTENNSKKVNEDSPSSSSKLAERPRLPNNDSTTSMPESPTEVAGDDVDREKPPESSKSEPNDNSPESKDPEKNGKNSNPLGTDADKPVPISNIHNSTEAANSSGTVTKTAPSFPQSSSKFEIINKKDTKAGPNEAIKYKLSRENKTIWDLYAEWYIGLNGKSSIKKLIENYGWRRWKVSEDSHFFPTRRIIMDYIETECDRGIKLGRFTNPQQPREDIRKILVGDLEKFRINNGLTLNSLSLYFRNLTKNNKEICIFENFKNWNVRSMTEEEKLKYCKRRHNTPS
Test: PBM E-score (8-mer binding enrichment) (E-score (-0.5 to 0.5)); higher = stronger / more preferred TF binding; most listed sequences are background and not binding sites
Conditions: protein concentration: 100 nM; construct: GST-full length
Outline: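 E-scores (a modified Wilcoxon-Mann-Whitney statistic) were assigned by the Universal PBM Analysis Suite to every ungapped eight-base word pooled with its reverse complement. The input came from universal all-10-mer Agilent arrays made double-stranded by primer extension and probed with GST-tagged yeast transcription factors at about 100-200 nM. Fluorescent anti-GST detected bound protein, and masliner normalised the scans.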

Point of comparison: ATGAAAAG, “PBM E-score” value -0.0698. Against it:
- ATTGAAAT — higher, 0.0928
- ATTGCAGG — lower, -0.124
- CGGTTGGA — higher, 0.0351
- AACAAGCA — higher, -0.00635
- CCGCTTCG — higher, 0.0926
- AGTATCAA — higher, 0.00312
- TATGTAAA — higher, -0.00541
- ATCATCAG — higher, 0.0107
- CCGGCGCG — lower, -0.112
- ATCGCGGA — higher, 0.04
- AGCCTTTA — higher, -0.00701
- GTGCGAAC — lower, -0.117
- CTACAGTC — lower, -0.164
- ACCACTCC — higher, 0.0934
- ACAGGTAT — higher, 0.163
- AGAAGATG — higher, 0.256
- CGCGTACC — lower, -0.108
- TACGACAA — higher, 0.23
- CCCCGTGC — lower, -0.116
- CCTTTATA — lower, -0.0704
- ACATAACG — lower, -0.167
- ACGATAGA — higher, 0.0112
- ACGCACGT — higher, -0.0538
- AAAAGAAT — higher, 0.174
- GACGCGAA — higher, 0.088
- CCATGTTC — higher, -0.0313
- AGATCCGG — higher, 0.0544
- GTTTGACA — higher, -0.0418
- TGAAAGAA — lower, -0.0893
- CCCGCCGC — higher, 0.132
- ACCTTTTC — higher, -0.0349
- TCTAAAAA — higher, 0.106
- CTGCAGTA — lower, -0.187
- CCTCCACG — lower, -0.179
- ATTTGCGA — higher, -0.0325
- CATCACCA — higher, -0.0237
- CGGGTAGA — higher, -0.0235
- AAGGGGAG — lower, -0.0926
- CTGGGGCC — higher, 0.0364
- AAACAAGT — higher, 0.137
- ACTACCGG — higher, 0.00365
- GCAATGGA — lower, -0.146
- GTTAAACA — higher, 0.0589
- CGCTAATA — higher, -0.0086
- TCGCAACA — lower, -0.134
- ATTGACCA — higher, 0.0202
- GATTAGCA — higher, 0.101
- CTGCCTCA — higher, -0.0321
- GATGCCCC — higher, 0.248
- AAGTGGCA — higher, 0.238
- AGCCCCGC — higher, 0.00154
- CTCTCGTA — lower, -0.0764
- ACCACGTC — lower, -0.253
- AGCAGTAC — lower, -0.0971
- CTGACCAA — higher, 0.0387
- AGCAACCT — higher, 0.316
- GGGGAACC — higher, 0.161
- TGGTCACA — higher, -0.0023
- ACCGTGAT — higher, 0.0747
- ACCGGGTG — higher, 0.0199
- ACCTGACG — lower, -0.109
- GCACCCCC — higher, 0.0067
- CCAAATCG — higher, 0.00834
- CCTCAGAC — lower, -0.19
- GGGGTACA — higher, -0.0231
- ACAATACC — higher, 0.00823
- AACAGGTG — higher, 0.048
- GCAATTCC — higher, -0.0456
- ACCACATC — higher, 0.0684
- AACTTTGG — higher, 0.154
- ATGTTGAG — lower, -0.119
- CTCAAACA — higher, -0.0199
- TAGGCCCA — lower, -0.139
- ACTGCCCG — lower, -0.203
- GTTGACTA — higher, 0.0209
- GCCTTGGA — lower, -0.159
- AACTCTCT — lower, -0.185
- ACATGTAA — higher, 0.087
- AAAGTAGG — higher, 0.214
- AGAGGCTG — higher, 0.206
- ACGTCCCT — lower, -0.188
- ACGATAAA — higher, -0.0322
- ATATCTGC — higher, -0.0191
- ATCTAGCA — higher, 0.1
- GGCGCTTA — higher, 0.0941
- ATATTAAT — higher, 0.234
- CCTTGATA — higher, -0.0119
- ATTGCACC — higher, 0.00578
- TAAATTAA — higher, 0.0451
- AGCGCTTA — lower, -0.14
- ATGTGAAC — higher, -0.0321
- ACGACAAC — higher, 0.0698
- AGAGCCAG — lower, -0.211
- AAATCGTC — lower, -0.267
- ACCACAGA — higher, 0.0112
- ATATGACG — higher, -0.00377
- CATCTCGG — higher, -0.00481
- ACTGCTTA — higher, 0.178
- CACCATTA — higher, 0.0631
- CTCTAGAC — lower, -0.245
- ACATACTA — higher, -0.0008
- AGCCGCAT — higher, 0.0509
- ACCGCGGG — higher, -0.0566
- CTAAAGAA — higher, 0.0847
- AACGCTTC — higher, 0.148
- AACCACCA — higher, 0.135
- GCGCTGGA — higher, 0.109
- TATTGCCA — higher, 0.00643
- ATTCGCTC — lower, -0.0957
- CGAAGTCA — higher, 0.0729
- GCTAATCA — higher, 0.0571
- AAGATGGA — higher, 0.146
- GCTGCCCA — higher, 0.188
- AGCGTTGG — higher, -0.0326
- GAGCACTA — lower, -0.237
- ATCGCAAA — higher, 0.0413
- AAGAGATA — higher, -0.00992
- ATTCGTAC — higher, 0.0494
- TACAATCA — higher, 0.0182
- AAATGTAG — higher, 0.0745
- GATGTTCC — higher, 0.0105
- ACAGCTCC — lower, -0.245
- ACGTCAAC — higher, -0.0218
- AACGAAGG — lower, -0.298
- CTTCAGTC — higher, -0.00112
- TCTTCGCA — higher, -0.0271
- TACTCCAA — higher, 0.0259
- GTCGCAGA — higher, -0.00552
- AATCTTGT — higher, 0.0867
- ACCCTCCC — higher, 0.114
- CCATTTGA — lower, -0.0906
- CGTGCTAA — lower, -0.152
- GATCGACA — lower, -0.177
- TCCAAGGA — higher, 0.0809
- AGTCTAGA — higher, 0.0415
- ATTGAGTG — higher, 0.0775
- GATCAGGC — lower, -0.144
- CAGACATA — higher, -0.00288
- CCGCGGAG — higher, -0.0631
- CCTTCAGC — lower, -0.158
- GTCTTCAA — higher, 0.00898
- ATACATCA — higher, 0.0931
- AAACGGCA — higher, 0.0709
- ACTAGCGA — lower, -0.139
- AATTCGCA — higher, 0.0903
- CTAACACC — lower, -0.192
- CGAGCTCG — lower, -0.235
- GGCGTAGA — higher, 5e-05
- GGATCCAC — higher, 0.302
- GATGCCGC — higher, 0.267
- CAGAGGTA — higher, 0.0281
- GGGCTCAA — higher, -0.0416
- ATACTCGC — higher, 0.0551
- CTAGAATA — higher, 0.14
- GACACTAC — higher, -0.0247
- CGCGTAGC — higher, -0.0646
- CCCTACGG — higher, 0.0744
- GATCACGA — lower, -0.136
- AATTCCAC — higher, 0.191
- AATGATAA — higher, 0.147
- ACACTCCT — lower, -0.0983
- GGCCAACC — lower, -0.0896
- TATACGAA — higher, 0.259
- ATTTAGTA — higher, 0.228
- GGATTAAA — higher, 0.137
- GCGGTTGA — lower, -0.163
- GGCCAGAC — lower, -0.097
- GCGATACC — lower, -0.117
- AGAACTGA — higher, 0.0569
- CCTTAGCA — higher, 0.131
- ATCGACGC — lower, -0.15
